Over roughly 110,000 compounds, “z-score” has its median near -0.1; the highest 2% begin near 2. The list shows a part of the results. Calls of active or inactive are those of the source.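 The calls were made as follows: active = z-score in the third read window above 3 or below -3; inactive = the rest.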

The assay deals with Metabotropic glutamate receptor 8 (Rattus norvegicus) (UniProt P70579). Briefly: rat mGluR8 modulators via GIRK flux, primary screen, cell-based, thallium flux, HTS (AID 488969). The settings on record: HEK293 rat mGluR8, GIRK (G protein-gated inwardly rectifying potassium channel) thallium flux, FluoZin2; at 10 µM; stronger effect = higher value; submaximal glutamate (EC20) added with thallium.
Sequence of UniProt P70579 (P70579 whole entry, looked up): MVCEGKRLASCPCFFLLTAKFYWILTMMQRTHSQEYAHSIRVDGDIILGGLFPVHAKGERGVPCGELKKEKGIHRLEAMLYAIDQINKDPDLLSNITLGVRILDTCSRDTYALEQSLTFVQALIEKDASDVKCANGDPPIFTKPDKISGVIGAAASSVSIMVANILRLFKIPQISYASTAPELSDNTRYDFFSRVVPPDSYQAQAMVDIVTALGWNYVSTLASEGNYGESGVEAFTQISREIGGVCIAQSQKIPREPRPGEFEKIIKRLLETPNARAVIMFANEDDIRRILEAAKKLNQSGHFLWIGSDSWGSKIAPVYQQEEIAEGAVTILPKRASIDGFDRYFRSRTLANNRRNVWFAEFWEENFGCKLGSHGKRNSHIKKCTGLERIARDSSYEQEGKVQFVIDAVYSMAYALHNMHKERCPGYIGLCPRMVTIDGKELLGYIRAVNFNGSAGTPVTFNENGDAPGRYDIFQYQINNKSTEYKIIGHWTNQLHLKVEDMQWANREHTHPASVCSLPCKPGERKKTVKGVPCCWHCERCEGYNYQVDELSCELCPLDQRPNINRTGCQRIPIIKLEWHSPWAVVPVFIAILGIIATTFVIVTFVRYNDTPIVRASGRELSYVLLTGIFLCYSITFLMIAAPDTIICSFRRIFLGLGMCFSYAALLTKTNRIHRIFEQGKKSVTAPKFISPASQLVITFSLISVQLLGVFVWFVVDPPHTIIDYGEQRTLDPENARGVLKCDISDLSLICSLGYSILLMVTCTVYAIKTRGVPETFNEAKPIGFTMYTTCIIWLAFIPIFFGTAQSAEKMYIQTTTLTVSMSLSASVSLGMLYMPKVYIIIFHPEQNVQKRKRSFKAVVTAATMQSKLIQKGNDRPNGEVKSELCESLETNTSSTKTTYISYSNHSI
In turn, `COc1ccc(C2C(C(C)=O)=C(O)C(=O)N2C)c(OC)c1` (stereo not given) gave a z-score of -0.23.

Compound `CC(C)CN(C(=O)CN1CCOCC1)c1c(N)n(CC(C)C)c(=O)[nH]c1=O` displayed a z-score of -0.179.

Take `COC(=O)c1ccccc1NC(=O)c1ccccc1N(C)S(=O)(=O)c1ccccc1`: the z-score was -0.0709.

Turning to `CCCCCn1c(SCC(=O)c2ccccc2)nc2cc(C(=O)NCc3ccco3)ccc2c1=O`, the z-score is -0.157.

`CCOc1ccc(-c2nnc(-c3cccs3)o2)cc1` had a z-score of -0.352.

Compound `Cc1nn(-c2ccccc2)c(CC(C)(C)C(=O)O)c1C(=O)O` registered a z-score of 0.508.

In turn, `CCNc1nc(NCC)n2c(SCC(=O)c3ccc(C(C)C)cc3)nnc2n1` had a z-score of -0.0918.

`C/C(=N\OCC(=O)Nc1ccc2c(c1)OCCO2)c1ccc2c(c1)OCCO2` yielded a z-score of -0.144.

`CSc1nnc2n(-c3ccc(C)cc3)c(=O)c3c4c(sc3n12)COC(C(C)C)C4` (stereo not given) registered a z-score of -0.057.

With `CC1(C)CC(=O)c2cnc(NC(=O)Cc3ccc(Cl)cc3)nc2C1`, the z-score is -0.914.

Regarding `CCCCOC(=S)NC(=O)c1sc2ccccc2c1Cl`, the z-score was active: 17.3.

`Cc1cc(O)cc(O)c1C(=O)Cc1cnn(-c2ccccc2)c1` had a z-score of -0.667.

In the case of `COc1cc(S(=O)(=O)N2CCN3CCCC3C2)ccc1-n1cnnn1` (stereo not given), the z-score stood at 0.128.

`COCCC(=O)NC12CC3CC(CC(C3)C1)C2`: the z-score was -0.301.

In turn, `CCN(CC(O)Cn1c2ccccc2c2ccccc21)S(=O)(=O)c1ccc(C)cc1` (stereo not given) yielded a z-score of 0.0377.

Consider `O=C(COc1ccccc1[N+](=O)[O-])N/N=C/c1cccs1`, for which the z-score was 0.59.

As for `Cn1c(=O)c2c(ncn2CC(COCc2ccccc2Cl)OCc2ccccc2Cl)n(C)c1=O` (stereo not given), the z-score was -0.242.

Compound `Cc1ccc(S(=O)(=O)NC(=O)c2cc(C)n(-c3ccc(N(C)C)cc3)c2C)cc1` registered a z-score of 0.0357.

In the case of `COc1cc(S(=O)(=O)N(Cc2ccc(C)cc2)Cc2ccco2)ccc1-n1cnnn1`, the z-score was 0.205.

In the case of `COCCNC(=O)CS(=O)Cc1nc(-c2ccc(OC)cc2)oc1C` (stereo not given), the z-score was -0.202.

The compound `CCn1c(=O)n(CC)c2cc(S(N)(=O)=O)ccc21` came in with a z-score of -0.511.

`Cc1cc(SC#N)cc(C)c1NC(=O)CCl` yielded a z-score of -0.148.

`CCn1c(N)c(C(=O)Nc2ccccc2C(=O)OC)sc1=S` registered a z-score of 0.0436.

The compound `CCOc1ccc(/C=C(\C#N)C(=O)c2c(C)[nH]c3ccccc23)cc1OC` yielded a z-score of -0.253.

For `COc1ccc(OC)c(S(=O)(=O)N(C)CC(=O)N2CCN(c3ccccc3F)CC2)c1`, the z-score is -2.54.

As for `COc1cc2c(cc1NCc1ccc3c(c1)OCO3)oc1ccccc12`, the z-score is 0.427.

`O/N=C/c1ccc(OCC(O)COc2ccc(/C=N/O)cc2)cc1` displayed a z-score of -0.493.

On to `COc1ccc(-c2noc(CCC(=O)Nc3cccc(C)c3)n2)cc1`, for which the z-score was -0.128.

On to `O=C(NCc1ccccn1)c1cc(-c2ccccc2Cl)nc2ccccc12`, for which the z-score was -0.972.

The compound `CCS(=O)(=O)N1Cc2ccccc2CC1C(=O)OCC(=O)Nc1ccc(SC(F)F)cc1` (stereo not given) had a z-score of -0.256.

`COc1ccccc1CN1C(=O)CN(C2CCCC2)C(=O)C1c1ccc(F)cc1` (stereo not given) gave a z-score of 0.21.

As to `CCN1CCN(S(=O)(=O)c2ccc(Br)s2)CC1`, the z-score was -0.028.

Compound `Nn1c(SCc2nc3ccccn3c2Br)nnc1-c1cccnc1` had a z-score of -0.0849.

`COc1ncnc(OC)c1NC(=O)c1ccc(F)cc1` returned a z-score of -0.0697.

Consider `COC(=O)c1ccccc1NC(=O)CN(C)S(=O)(=O)c1cc(C)ccc1OC`, for which the z-score was -0.0992.

On to `O=C(Nc1nccs1)C1CC2CCC1C2` (stereo not given), for which the z-score is -0.0817.

In turn, `Cc1cc(C)c(S(=O)(=O)Nc2nnc(C)s2)c(C)c1` gave a z-score of -0.124.

In turn, `CCc1ccc(CNC(=O)CCc2nc(-c3cccs3)no2)cc1` gave a z-score of -0.0239.

As to `O=C(CN1CCSCC1)N/N=C/c1ccc(F)cc1F`, the z-score worked out at 0.276.

In turn, `CN(C)S(=O)(=O)c1cccc(C(=O)Nc2ccccc2Cl)c1` yielded a z-score of -0.373.

Turning to `Cc1ccc(S(=O)(=O)N(CC(=O)N2CCc3ccccc3C2)c2cccc(Cl)c2)cc1`, the z-score is -0.189.

On to `CC(=O)c1ccc(OCC(O)CN2CCCC(C)C2)cc1` (stereo not given), for which the z-score is -0.0491.

For the compound `O=C(NCc1ccc2[nH]c3c(c2c1)CCCC3)N1CCOCC1`, the z-score came to 0.806.

`O=C(Nc1ccc(Cl)cn1)Nc1ccccc1F` had a z-score of 0.471.

As to `Cc1ccc(CSc2nnc(SCC(=O)N/N=C/C=C/c3ccco3)s2)cc1`, the z-score was -0.159.

The compound `O=C(O)c1ccccc1C(=O)NNc1ccc(F)cc1` came in with a z-score of 0.269.

`FC(F)(F)c1cnc(Sc2nnc(-c3cccs3)n2CC2CCCO2)c(Cl)c1` (stereo not given): the z-score is 0.0854.

Turning to `Cn1c(Oc2ccccc2NCc2cccc(Br)c2)cc(=O)n(C)c1=O`, the z-score was -1.27.

The compound `CC(C)NC(=O)NC(=O)COC(=O)CCCSc1nc2ccccc2s1` gave a z-score of -0.112.

As to `COc1ccc(-n2cc(-c3ccccc3)[nH]c2=S)cc1`, the z-score is active: 11.4.

Compound `CCCCCn1c(SCC(=O)OCC)nc2cc(C(=O)N3CCC(C(N)=O)CC3)ccc2c1=O` displayed a z-score of -0.507.

In the case of `Cc1cc(NC(=O)CSc2nnc(C3COc4ccccc4O3)o2)no1` (stereo not given), the z-score is -0.515.

`COC(=O)c1sc(S(=O)(=O)NCc2ccccc2)c(C(=O)OC)c1C` yielded a z-score of -0.852.

Regarding `COc1ccc(C2/C(=C(/O)c3ccccc3)C(=O)C(=O)N2CCN2CCOCC2)c(OC)c1` (stereo not given), the z-score was -0.05.

`CN(Cc1ccccc1)C1CC(=O)N(c2ccc(C(=O)O)cc2)C1=O` (stereo not given) came in with a z-score of 0.626.

As for `CCCc1cc(NCCCN2CCOCC2)n2c(nc3ccccc32)c1C#N`, the z-score is -0.336.

With `CC(C)Cc1nc2n[nH]c(N)c2c2c1COC(C)(C)C2`, the z-score was -0.0819.

In turn, `C=CCN(c1ccccc1)S(=O)(=O)c1ccc(Cl)c(C(=O)OCC(=O)c2[nH]c(C)c(C(C)=O)c2C)c1` showed a z-score of 0.731.

The compound `CCOC(=O)C1=C(CSc2nc3ccccc3s2)NC(=O)NC1c1ccc(OC)cc1` (stereo not given) came in with a z-score of -0.273.

For the compound `Cc1cc(C)c(C)c(C(=O)CSc2nnc(C)c(=O)[nH]2)c1C`, the z-score is -0.142.

In turn, `O=C(CCc1ccccc1)NNC(=O)COc1ccccc1` came in with a z-score of 0.641.

In turn, `O=C(Cn1nnc(-c2ccccc2NC(=O)c2ccccc2F)n1)NCc1ccco1` gave a z-score of 0.668.

In the case of `Cc1cc(C(=O)COc2ccc3ccc(=O)oc3c2)c(C)n1Cc1cccs1`, the z-score is -0.421.

With `CCOc1ccc(NC(=O)c2ccc(Br)o2)c([N+](=O)[O-])c1`, the z-score was -0.00177.

The compound `CS(=O)(=O)N(CC(=O)NC1CCCCC1)Cc1ccc(Cl)cc1` had a z-score of -0.031.

`CCC(C)(C)C1CCC2(CC1)NC(CO)(CO)CO2` (stereo not given) registered a z-score of -0.0633.

In turn, `CC(=O)/C=C(/C)NC(Cc1c[nH]c2ccccc12)C(=O)O` (stereo not given) displayed a z-score of 0.276.

In turn, `CCCCC1CCC(C(=O)NCc2ccc3c(c2)OCO3)CC1` (stereo not given) returned a z-score of -0.022.

As for `c1ccc(C2=Nc3ccccc3OC2)cc1`, the z-score is -0.499.

Turning to `Cc1ccccc1OCC(=O)Nc1ccc2c(c1)COC2=O`, the z-score was 1.28.
